Reference: PMC4336329 (PLoS ONE, 2015)
Out of some 310,000 compounds screened, about 2,200 (0.71%) showed an effect of 50% or more. The effect is printed as a negative number. This is one part of the list.

target: human ether-à-go-go-related gene (hERG) potassium channel (human, UniProt Q12809); assay: primary screen, population patch clamp on CHO cells stably expressing hERG
Sequence (Q12809 whole entry, looked up): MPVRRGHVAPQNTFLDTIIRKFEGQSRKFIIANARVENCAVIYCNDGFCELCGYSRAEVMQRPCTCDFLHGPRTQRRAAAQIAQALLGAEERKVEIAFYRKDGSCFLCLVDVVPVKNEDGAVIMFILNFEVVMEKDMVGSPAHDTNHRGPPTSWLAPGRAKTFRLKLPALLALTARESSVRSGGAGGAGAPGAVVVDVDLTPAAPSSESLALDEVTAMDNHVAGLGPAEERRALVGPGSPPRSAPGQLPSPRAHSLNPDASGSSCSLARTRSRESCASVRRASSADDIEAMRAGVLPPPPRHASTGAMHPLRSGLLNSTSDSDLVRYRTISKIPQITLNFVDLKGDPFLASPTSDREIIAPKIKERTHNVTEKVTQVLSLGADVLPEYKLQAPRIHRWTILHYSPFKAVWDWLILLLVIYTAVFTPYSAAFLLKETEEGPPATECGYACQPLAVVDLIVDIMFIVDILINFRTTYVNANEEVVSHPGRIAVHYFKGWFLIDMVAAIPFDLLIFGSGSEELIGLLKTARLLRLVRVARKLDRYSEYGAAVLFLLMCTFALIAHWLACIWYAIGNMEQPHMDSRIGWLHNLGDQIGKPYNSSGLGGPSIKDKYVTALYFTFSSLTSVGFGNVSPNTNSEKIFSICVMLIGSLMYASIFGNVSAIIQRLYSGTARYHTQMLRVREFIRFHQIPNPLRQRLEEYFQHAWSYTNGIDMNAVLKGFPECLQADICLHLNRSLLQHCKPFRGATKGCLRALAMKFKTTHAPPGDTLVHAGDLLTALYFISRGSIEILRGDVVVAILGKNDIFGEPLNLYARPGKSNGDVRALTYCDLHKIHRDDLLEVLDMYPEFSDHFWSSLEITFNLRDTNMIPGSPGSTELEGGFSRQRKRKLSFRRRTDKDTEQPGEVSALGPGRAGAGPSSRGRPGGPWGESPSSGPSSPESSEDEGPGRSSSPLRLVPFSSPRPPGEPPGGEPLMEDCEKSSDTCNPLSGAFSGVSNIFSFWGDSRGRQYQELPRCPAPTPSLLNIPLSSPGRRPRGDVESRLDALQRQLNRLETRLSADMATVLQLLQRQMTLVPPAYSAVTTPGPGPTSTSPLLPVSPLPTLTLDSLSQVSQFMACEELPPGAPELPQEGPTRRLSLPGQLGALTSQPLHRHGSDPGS

| Compound | hERG current change (%, negative = inhibition) at 1uM [%] |
| --- | --- |
| CCOc1ccc(C(=O)Nc2cccc(-c3nc4cccnc4o3)c2)cc1Cl | -2.76 |
| Cc1nn(C)c(C(=O)N/N=C/c2cccc3ccccc23)c1Cl | 2.16 |
| COC(=O)c1cc(NC(=O)CSc2nc(C)cc(=O)[nH]2)cc(C(=O)OC)c1 | 8.49 |
| O=S(=O)(c1cc(Cl)ccc1Cl)N1CCN(Cc2ccc3c(c2)OCO3)CC1 | 11.7 |
| CCCn1c(=N)c(C(=O)NCC2CCCO2)cc2c(=O)n3cccc(C)c3nc21 (stereo not shown) | -78.3 |
| CC(=O)NCC(=O)OC(C)C(=O)Nc1ccc(C(C)=O)cc1 (stereo not shown) | -3.54 |
| Cc1cc(C)cc(-n2cc(C(=O)O)c(=O)cc2C)c1 | -10.2 |
| O=C(Nc1ccc2oc(-c3ccc4ccccc4c3)nc2c1)c1ccc2c(c1)OCCO2 | 16.3 |
| O=C(NCCc1ccc(Cl)cc1)C12CC3CC(CC(O)(C3)C1)C2 | 14.1 |
| CCN1CCN(S(=O)(=O)c2c(C)[nH]c(C)c2C(=O)N2CCCCC2)CC1 | 21.7 |
| CCOc1cc2c(cc1OCC)-n1cccc1C(c1ccc(C)cc1C)NC2.Cl (stereo not shown) | 16.2 |
| Fc1ccc(-c2c[nH]c(=S)n2Cc2ccccc2)cc1 | 4.75 |
| O=C(Nc1nc2ccccc2s1)Nc1ccc(F)cc1F | 14.9 |
| O=C(c1cc(C(=O)NCc2ccccc2)c(=O)n(Cc2ccccc2)c1)c1cc(Cl)ccc1O | 7.52 |
| COc1ccc(NS(=O)(=O)c2ccc(C)c(C(=O)N3CCCCCCC3)c2)cc1 | -7.93 |
| O=C1CC(NS(=O)(=O)c2ccc([N+](=O)[O-])cc2)CN1c1ccc2c(c1)OCCO2 (stereo not shown) | 7.66 |
| Fc1ccccc1NC(=S)NCCc1cccc(Cl)c1 | 10.3 |
| CCC/C(=N\NC(=O)C1CC1)c1ccccc1 | 2.55 |
| CCOC(=O)N1CCN(C(=O)Cc2cccc3ccccc23)CC1 | 7.05 |
| COc1ccc(-c2nnc3sc(C(C)N4C(=O)c5ccccc5C4=O)nn23)cc1 (stereo not shown) | 5.52 |
| CCS(=O)(=O)c1ccc(O)c(NC(=O)Nc2ccc(C(C)(C)C)cc2)c1 | 16 |
| Cc1ccc(-c2nc3ccccc3[nH]2)cc1NC(=S)NC(=O)c1ccccc1Br | 8.3 |

| Compound | hERG current change (%, negative = inhibition) at 1uM [%] |
| --- | --- |
| CCOc1cc(NC(=S)NCc2ccco2)c(OCC)cc1NC(=O)CC(C)C | 12.1 |
| Cc1ccc(-c2cc(C(F)F)n3ncc(C(=O)N4CCc5ccccc54)c3n2)cc1 | 8.33 |
| CNS(=O)(=O)c1cccc(C(=O)Nc2cccc(Cl)c2)c1 | -2.9 |
| Cc1c(CCO)c(=O)n2c([nH]c3ccccc32)c1C#N | 10.5 |
| Nc1ccc(C(=O)C(=O)c2ccc(N)cc2)cc1 | 12 |
| CCn1c(COc2ccc(OC)cc2)nc2ccccc21 | -12.1 |
| CS(=O)(=O)c1ccc(Cl)c(NC(=O)CCCc2nc3ccccc3c(=O)[nH]2)c1 | 9.83 |
| O=c1cc(O)c2ccccc2[nH]1 | 14.8 |
| O=C(Nc1ccccc1)C1=C[C@H](c2coc3ccccc3c2=O)C[C@H](OCCCCO)O1 | -20 |
| COc1ccc(C(=O)N(Cc2ccco2)Cc2cc3cc(C)ccc3[nH]c2=O)cc1OC | 4.14 |
| COc1ccc(-c2ncncc2-c2ccccc2)c(O)c1 | 6.31 |
| COC(=O)c1cc(CNC(=O)c2ccc(N3CCCC3)c([N+](=O)[O-])c2)ccc1OC | -6.96 |
| CC1CCCCN1c1cc(C#N)c(C#N)cc1[N+](=O)[O-] (stereo not shown) | -2.62 |
| C=CCSc1nc2c(c(=N)n1CC=C)C1CCCC1S2 (stereo not shown) | 7.28 |
| O=C(Nc1ccccc1N1CCCCC1)c1ccc(N2C(=O)c3ccccc3C2=O)cc1 | 9.37 |
| Cc1ccc2c(Cn3cc(C(F)(F)F)cc(Cl)c3=O)cc(=O)oc2c1 | 8.32 |
| CC1CCc2c(sc(NC(=O)CN3CCN(C(=O)c4ccco4)CC3)c2C#N)C1 (stereo not shown) | -4.17 |
| N#CC(C#N)=C(N)/C(C#N)=C\c1ccc(O)cc1 | 11.6 |
| O=C(Nc1ccc2oc(=O)ccc2c1)c1cccnc1 | 1.01 |
| O=[N+]([O-])c1ccc(OCC(O)CNCCNc2nccc(C(F)(F)F)n2)cc1 (stereo not shown) | -77.9 |
| Cc1nc2c(ncn2-c2ccccc2)c(=O)n1NC(=O)CN1CCN(C)CC1 | 14 |
| O=C1c2ccccc2C(=O)N1Cc1nc2ccccc2c(=O)n1CCN1CCOCC1 | 8.13 |

| Compound | hERG current change (%, negative = inhibition) at 1uM [%] |
| --- | --- |
| CSCCC(NC(N)=O)C(=O)NCc1ccccc1Cl (stereo not shown) | 6.75 |
| O=C(Cc1ccc(NC2=NC3CS(=O)(=O)CC3S2)cc1)NCc1ccccc1 (stereo not shown) | 15.2 |
| O=C(CN1C(=O)NC2(CCCCCCC2)C1=O)NC(=O)NCc1ccco1 | 6.48 |
| CCOc1ccc(CC(=O)Nc2sc(Cc3ccccc3)cc2C(N)=O)cc1OCC | 7.95 |
| COC(=O)C1CCN(C(=O)C(C)Oc2ccc(Cl)cc2Cl)CC1 (stereo not shown) | 15.7 |
| COc1ccc(CCc2nnc(CCC(=O)N(C)Cc3ccnc4ccccc34)o2)cc1 | -2.44 |
| CC(C)c1ccc(NC(=O)C(c2ccccc2)N(C)C(=O)c2cnccn2)cc1 (stereo not shown) | 6.31 |
| O=C(NC1CCC(O)CC1)c1ccc(S(=O)(=O)NCc2ccco2)cc1 (stereo not shown) | 21.3 |
| Cc1cc(Cl)ccc1NC(=O)Nc1c(C)n(-c2ccccc2)c(=O)n1C | -12.1 |
| Cc1cccc(N=C2CSC(=O)N2)c1 | 12 |
| COc1cccc(/C=N/NC(=S)Nc2cccnc2)c1 | 10.7 |
| CCOC(=O)c1c(C)[nH]c(C)c1C(=O)CSc1nc(N)cc(N)n1 | 14.3 |
| COc1ccc(S(=O)(=O)C(C#N)c2nc3ccccc3nc2N2CCCCC2)cc1 (stereo not shown) | -0.113 |
| CC(=O)/C(=C/N(C)C)C(=O)Nc1ccc(Cl)cc1Cl | 13 |
| COc1ccc(OCCCn2cc(/C=C3/C(=N)N4C=C(C)SC4=NC3=O)c3ccccc32)cc1 | 12.4 |
| COc1ccccc1C(=O)OCC(=O)NC(=O)NCc1ccccc1 | -3.81 |
| CCOC(=O)N1CCN(CC(O)COc2ccc(OC)cc2C(C)(C)C)CC1.Cl (stereo not shown) | 2.16 |
| CCOc1ccc(S(=O)(=O)NCc2ccco2)cc1 | 9.49 |
| CN(Cc1ccc(F)cc1)C(=O)c1cc(COc2ccc(F)cc2F)on1 | 9.63 |
| O=C(N/N=C/C=C/c1ccco1)c1ccccc1Cl | -6.98 |
| COc1ccc(C2=CSC3=NCCN23)cc1Cl | 6.27 |
| O=C(COc1ccc(Cl)cc1)NCc1nnc(SCC(=O)Nc2ccccc2)o1 | 1.01 |

| Compound | hERG current change (%, negative = inhibition) at 1uM [%] |
| --- | --- |
| Cc1c(Cl)c(-c2n[nH]c(=S)n2Cc2ccco2)nn1C | 9.86 |
| CC1=NOC(=O)/C1=C\c1ccc2c(c1)OCO2 | 18.6 |
| Cc1cccn2c(=O)c3cc(C(=O)N4CCOCC4)n(C)c3nc12 | 2.56 |
| CC1CN(C(c2ccco2)c2sc3ncnn3c2O)CC(C)O1 (stereo not shown) | 0.268 |
| Cn1c(SCc2nc3ccccc3[nH]2)nnc1-c1cnccn1 | 17.1 |
| O=C(COC(=O)c1ccc(F)c(S(=O)(=O)N2CCOCC2)c1)NCCc1ccccc1 | 11.3 |
| COc1ccc2sc(N(CCCN(C)C)C(=O)c3nc4ccccc4s3)nc2c1.Cl | 11.5 |
| Cc1nc(N2CCN(C(=O)c3ccco3)CC2)nc2c1C(=O)CC(C)C2 (stereo not shown) | 10.1 |
| COc1ccc(S(=O)(=O)NCc2csc(C)n2)cc1OC | 11.4 |
| COCC(C)n1c(C)cc(C(=O)COC(=O)CNC(=O)c2ccccc2)c1C (stereo not shown) | 14.4 |
| CN(C(=O)n1cnc2ccccc21)c1ccccc1 | 6.18 |
| O=C(Cc1ccccc1)N/N=C/c1ccc(OCC(=O)Nc2ccccc2)cc1 | 9.76 |
| Cc1cc(C(=O)N2CCCC(N3CCN(c4cccc(Cl)c4)CC3)C2)n(C)n1 (stereo not shown) | -1.81 |
| COc1cc(/C=C2\C(=O)NC(=O)N(c3ccccc3)C2=O)cc(OC)c1OC | 7.02 |
| COCCNC(=O)CCc1ccc(S(=O)(=O)Nc2ccc(C)cc2)cc1 | -6.4 |
| COc1cccc(-c2nc(CC(=O)O)cs2)c1OC | 18.3 |
| O=C(O)C1C2C=CC(O2)C1C(=O)NCc1ccccc1Br (stereo not shown) | 13.9 |
| COC(=O)c1ccc(CNC(=O)COC(=O)CCN2C(=O)C3CC=CCC3C2=O)cc1 (stereo not shown) | 6.86 |
| COc1ccc(Cl)c2c1[nH]c1nc(SCc3cccnc3)nnc12 | 11.4 |
| CCCCn1c(=O)[nH]c(=O)c2c1nc(-c1ccc(OCC)cc1)n2CC | 14.9 |
| CCCCc1cc(=O)oc2cc(OCC(=O)NCc3ccccn3)ccc12 | -2.44 |
| COc1cc(C2C(C(=O)c3ccco3)=C(O)C(=O)N2c2cc(C)on2)cc(Br)c1O (stereo not shown) | 9.94 |
